This is one part of the list. Sequences were assembled here from the parent chain. Inactive controls read about 0.05.
B1: TEV protease; numbered along this chain (parent)
chain: MGESLFKGPRDYNPISSSICHLTNESDGHTTSLYGIGFGPFIITNKHLFRRNNGTLVVQSLHGVFKVKDTTTLQQHLVDGRDMIIIRMPKDFPPFPQKLKFREPQREERICLVTTNFQTKSMSSMVSDTSCTFPSGDGIFWKHWIQTKDGQCGSPLVSTRDGFIVGIHSASNFTNTNNYFTSVPKNFMELLTNQEAQQWVSGWRLNADSVLWGGHKVFMVKPEEPFQPVKEATQL

Variants of: B1
Assay: raw area under fraction-flipped curve 0-4 h after induction (AUC4h, not background-subtracted), DNA-recorder readout of cleavage of the substrate (dimensionless); higher = more cleavage of the substrate by the protease variant
Settings: temperature: 34 °C; time window: 0-4 h after rhamnose induction
Description: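 In vivo DNA recorder in E. coli TOP10(DE3) ΔrhaA at 34 °C. Each TEVp single-site mutant (parent TEVp 0) is paired with a single-site variant of the 7-mer TEVs (canonical ENLYFQ|S). The substrate sits between flexible linkers in a Bxb1-sfGFP-TEVs-SsrA fusion, so cleavage stabilises Bxb1 and speeds flipping of a recombination array, read by NGS. The value is the raw area under the fraction-flipped curve over 0-4 h after rhamnose induction (AUC4h), with ≥20 reads per time point. It is not background-subtracted; inactive controls average about 0.047.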
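Further: Bxb1 expression induced with 0.2% (w/v) L-rhamnose at OD600 near 0.5, cultures sampled hourly, flipped fraction per protease–substrate barcode pair counted by paired-end Illumina sequencing.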

Variant | area with substrate ENLYDQS | area with substrate ENLYEQS | area with substrate ENLYGQS | area with substrate ENLYHQS | area with substrate ENLYKQS | area with substrate ENLYPQS | area with substrate ENLYSQS | area with substrate ENLYWQS | area with substrate ENLYMQS | area with substrate ENLYNQS | area with substrate ENLYQQS | area with substrate ENLYTQS | area with substrate ENLYVQS | area with substrate ENLYIQS | area with substrate ENLYLQS | area with substrate ENLYYQS | area with substrate ENLYRQS
MGESLFKGPRDYNPISSSICHLTNESDGHTTSLYGIGFGPFIITNKHLFRRNNGTLVVQSLHGEFKVKDTTTLQQHLVDGRDMIIIRMPKDFPPFPQKLKFREPQREERICLVTTNFQTKSMSSMVSDTSCTFPSGDGIFWKHWIQTKDGQCGSPLVSTRDGFIVGIHSASNFTNTNNYFTSVPKNFMELLTNQEAQQWVSGWRLNADSVLWGGHKVFMVKPEEPFQPVKEATQL [V64E] | 0.0604 | 0.0691 | 0.0603 | 0.0671 | 0.0655 | 0.129 | 0.0777 | 0.0834 | – | – | – | – | – | – | – | – | –
MGESLFKGPRDYNPISSSICHLTNESDGHTTSLYGIGFGPFIITNKHLFRRNNGTAVVQSLHGVFKVKDTTTLQQHLVDGRDMIIIRMPKDFPPFPQKLKFREPQREERICLVTTNFQTKSMSSMVSDTSCTFPSGDGIFWKHWIQTKDGQCGSPLVSTRDGFIVGIHSASNFTNTNNYFTSVPKNFMELLTNQEAQQWVSGWRLNADSVLWGGHKVFMVKPEEPFQPVKEATQL [L56A] | 0.0308 | 0.0598 | 0.0605 | – | 0.0276 | 0.0495 | – | 0.0714 | 0.0549 | 0.0486 | 0.0564 | – | – | – | – | – | –
MGESLFKGPRDYNPISSSICHLTNESDGFTTSLYGIGFGPFIITNKHLFRRNNGTLVVQSLHGVFKVKDTTTLQQHLVDGRDMIIIRMPKDFPPFPQKLKFREPQREERICLVTTNFQTKSMSSMVSDTSCTFPSGDGIFWKHWIQTKDGQCGSPLVSTRDGFIVGIHSASNFTNTNNYFTSVPKNFMELLTNQEAQQWVSGWRLNADSVLWGGHKVFMVKPEEPFQPVKEATQL [H29F] | 0.0654 | 0.0511 | 0.0665 | 0.0647 | 0.0653 | 0.0759 | – | 0.0838 | 0.0841 | 0.0893 | 0.0872 | 0.0792 | 0.118 | – | – | – | –
MGESLFKGPRDYNPISSSICHLTNESDGHTTSLYGIGFGWFIITNKHLFRRNNGTLVVQSLHGVFKVKDTTTLQQHLVDGRDMIIIRMPKDFPPFPQKLKFREPQREERICLVTTNFQTKSMSSMVSDTSCTFPSGDGIFWKHWIQTKDGQCGSPLVSTRDGFIVGIHSASNFTNTNNYFTSVPKNFMELLTNQEAQQWVSGWRLNADSVLWGGHKVFMVKPEEPFQPVKEATQL [P40W] | 0.0586 | 0.0357 | 0.0667 | 0.0616 | 0.0161 | 0.0827 | 0.0809 | – | 0.0831 | – | 0.0585 | 0.0687 | 0.134 | 0.121 | 0.0997 | 0.0461 | –
MGESLFKGPRDYNPISSSICHLTNESDGHTTSLYGIGFGPFIITNKHLFRRNNGTLVVQSLHGVFKVKDTTTLQQHLVDGRDMIIIRMPKDFPPFPQKLKFREPQREERICLVTTNFQTKSMSSMVSDTSCTFPSGDGIFWKHWIQTKDGQCGSPLVSTRDGFINGIHSASNFTNTNNYFTSVPKNFMELLTNQEAQQWVSGWRLNADSVLWGGHKVFMVKPEEPFQPVKEATQL [V165N] | 0.0608 | 0.0477 | 0.0741 | – | 0.0642 | – | 0.051 | – | – | – | – | 0.0626 | – | – | – | – | 0.0428
MGESLFKGPRDYNPISSNICHLTNESDGHTTSLYGIGFGPFIITNKHLFRRNNGTLVVQSLHGVFKVKDTTTLQQHLVDGRDMIIIRMPKDFPPFPQKLKFREPQREERICLVTTNFQTKSMSSMVSDTSCTFPSGDGIFWKHWIQTKDGQCGSPLVSTRDGFIVGIHSASNFTNTNNYFTSVPKNFMELLTNQEAQQWVSGWRLNADSVLWGGHKVFMVKPEEPFQPVKEATQL [S18N] | 0.0209 | – | 0.0609 | 0.068 | 0.0679 | 0.0727 | – | 0.0725 | 0.0788 | 0.0672 | 0.0507 | – | 0.116 | – | – | 0.0628 | –
MGESLFKGPRDYNPISSSICHLTNESDGHTTSLYGIGFGPFIITNKHLFRRNNGTLVVQSLHGVFKVKDTTTLQQHLVDGRDMIIIRMPKDFPPFPQKLKFREPQREERICLVTTNFQTKSMSSMVSDTSCTFPSGDGIFWKHWIQTKDGQCGSPLVSTRDGFIVGIHSASNFTNTNNYFTSVPKNFMELLTNQEAQQWVSGWRLNARSVLWGGHKVFMVKPEEPFQPVKEATQL [D208R] | 0.0668 | 0.0542 | – | 0.0561 | 0.0665 | 0.0729 | – | 0.0663 | 0.0612 | 0.0145 | 0.0663 | 0.0602 | 0.1 | 0.0656 | 0.0814 | 0.0581 | –
MGESLFKGPRDYNPISSSICHLTNESDGHTTSLYGIGFGPFIITNKHLFRRNNGTLVVQSLHGVFKVKDTTTLQQHLVDGRDMIIIRMPKDFPPFPQKLKFREPQREERICLVTTNFQTKSMSSMVSDTSCTFPSGDGIFWKHGIQTKDGQCGSPLVSTRDGFIVGIHSASNFTNTNNYFTSVPKNFMELLTNQEAQQWVSGWRLNADSVLWGGHKVFMVKPEEPFQPVKEATQL [W144G] | 0.068 | 0.0611 | 0.0801 | 0.0712 | 0.0658 | 0.0721 | – | 0.0493 | 0.0761 | – | 0.0699 | 0.0707 | 0.0975 | 0.0905 | 0.0775 | 0.0722 | –
MGESLFKGPRDYNPISSSICHLTNESDGHTTSLYGIGRGPFIITNKHLFRRNNGTLVVQSLHGVFKVKDTTTLQQHLVDGRDMIIIRMPKDFPPFPQKLKFREPQREERICLVTTNFQTKSMSSMVSDTSCTFPSGDGIFWKHWIQTKDGQCGSPLVSTRDGFIVGIHSASNFTNTNNYFTSVPKNFMELLTNQEAQQWVSGWRLNADSVLWGGHKVFMVKPEEPFQPVKEATQL [F38R] | 0.0587 | 0.0603 | 0.0526 | 0.0543 | 0.0652 | 0.0618 | – | 0.0533 | 0.0716 | 0.0611 | 0.0604 | – | – | 0.0842 | – | 0.0506 | 0.0499
